According to patent US12679903B2, “Antibody for specifically binding to lysyl-tRNA synthetase N-terminal domain exposed to extracellular membrane” (Zymedi Co., Ltd., priority 2018, dated 2026):

Assays:
RAW264.7 cells = test: LN421-dependent immune cell migration assay; assay type: cell-based; settings: 10 nM, 24 hours, LN421 2.5 μg/ml; FIG. 18
Procedure: In order to confirm the effect of the mutant antibody from which the ADCC/CDC function had been removed on immune cell migration, a cell migration assay was performed according to the method described in the prior literature (Park, S. G. et al. Human lysyl-tRNA synthetase is secreted to trigger pro-inflammatory response, Proc. Natl. Acad. Sci. USA 102, 6356-6361 (2005)).
Measurements were made in a trans well chamber with a polycarbonate membrane (5.0 μm pore size, Costar). LN421 was put into the lower chamber at a concentration of 2.5 μg/ml in the trans well chamber. Then, RAW264.7 cells were placed in the upper chamber at a concentration of 5×10^4 cells per well. Then, each antibody was put into the chamber at a concentration of 10 nM, and then incubated for 24 hours. Then, it was washed twice with PBS and treated with 70% MeOH (in PBS). After washing twice with PBS again, the transferred cells were stained with crystal violet (Sigma) and dried. Then, the upper chamber was put in 33% acetic acid (Merck) and stirred for 10 minutes. Crystal violet-dissolved acetic acid solution was transferred to a 96-well plate, and absorbance was measured at 590 nm in a microplate reader (Tecan).

[1] = system: T52D KRS-MDA-MB-231 stable cells; test: Laminin-dependent cancer cell migration assay; assay type: cell-based; settings: 10 nM, 7 hours; FIG. 19
Procedure: Measurements were made in a 24-well trans well chamber with a polycarbonate membrane (8.0 μm pore size, Costar). Laminin was added to the lower chamber at a concentration of 1 mg/ml, and a migration assay was performed using stable MDA-MB-231 cells overexpressing T52D KRS, which mimics a phosphorylated KRS. To induce T52D KRS expression, T52D KRS-MDA-MB-231 stable cells were treated with doxycycline (0.1 μg/ml) for one day, and then seeded in the upper chamber at a concentration of 4×10^4 cells after suspended in serum-free RPMI medium. […] The non-migrating cells existing above the membrane were removed with a cotton swab. The membrane was washed twice with PBS and treated with 70% MeOH (in PBS) for 30 minutes. Again washed twice with PBS, the membrane was stained using crystal violet (Slgma), and dried. Then, the upper chamber was put in 33% acetic acid (Merck) and stirred. Crystal violet-dissolved acetic acid solution was transferred to a 96-well plate, and absorbance was measured at 590 nm in a microplate reader (Tecan).

[2] = Thermal stability (protein thermal shift dye kit); assay type: physicochemical; settings: 1 mg/ml purified antibody
Procedure: In addition, the thermal stability of the antibody was measured using 100 μl of the purified antibodies at a concentration of 1 mg/ml. Thermostability was investigated 4 times using protein thermal shift dye kit (Thermofisher) and Quant Studio 3 Real-time PCR equipment (Thermofisher).

Molecule	LN421-dependent cell migration (RAW264.7 cells)	laminin-dependent migration of cancer cells [1]	Thermal stability Tm1 [2]	Thermal stability Tm2 [2]
N3-8-1 mutant LALA: N3-8-1 with ADCC/CDC function removed; HC SEQ ID NO: 226, LC 111 (antibody, IgG heavy chain 6_IgG1 mutant LALA_amino acid; IgG light chain 3) heavy: EVQLLESGGGLVQPGGSLRLSCAASGFTFSSYDMSWVRQAPGKGLEWVSAISPYSGRIYYADSVKGRFTISRDNSKNTLYLQMNSLRAEDTAVYYCARMALDFDYWGQGTLVTVSS[letters of human IgG1 constant region with changes omitted] light: QSVLTQPPSASGTPGQRVTISCTGSSSNIGSNYVTWYQQLPGTAPKLLIYDNSNRPSGVPDRFSGSKSGTSASLAISGLQSEDEADYYCSSFSDELGAYVFGGGTKLTVLGQPKAAPSVTLFPPSSEELQANKATLVCLISDFYPGAVTVAWKADSSPVKAGVETTTPSKQSNNKYAASSYLSLTPEQWKSHRSYSCQVTHEGSTVEKTVAPTECS	inhibited LN421-dependent cell migration	inhibited the laminin-dependent migration of cancer cells		
N3-8-1 mutant LALATA: N3-8-1 with ADCC/CDC function removed; HC SEQ ID NO: 228, LC 111 (antibody, LALA-TA Fc mutations; IgG heavy chain 6_IgG1 mutant LALATA_amino acid; IgG light chain 3) heavy: EVQLLESGGGLVQPGGSLRLSCAASGFTFSSYDMSWVRQAPGKGLEWVSAISPYSGRIYYADSVKGRFTISRDNSKNTLYLQMNSLRAEDTAVYYCARMALDFDYWGQGTLVTVSSASTKGPSVFPLAPSSKSTSGGTAALGCLVKDYFPEPVTVSWNSGALTSGVHTFPAVLQSSGLYSLSSVVTVPSSSLGTQTYICNVNHKPSNTKVDKKV[letters of human IgG1 Fc with L234A L235A T299A (EU numbers) omitted] light: QSVLTQPPSASGTPGQRVTISCTGSSSNIGSNYVTWYQQLPGTAPKLLIYDNSNRPSGVPDRFSGSKSGTSASLAISGLQSEDEADYYCSSFSDELGAYVFGGGTKLTVLGQPKAAPSVTLFPPSSEELQANKATLVCLISDFYPGAVTVAWKADSSPVKAGVETTTPSKQSNNKYAASSYLSLTPEQWKSHRSYSCQVTHEGSTVEKTVAPTECS	inhibited LN421-dependent cell migration	inhibited the laminin-dependent migration of cancer cells		
N3-8-1 mutant LALAPG: N3-8-1 with ADCC/CDC function removed; HC SEQ ID NO: 230, LC 111 (antibody, IgG heavy chain 6_IgG1 mutant LALAPG_amino acid; IgG light chain 3) heavy: EVQLLESGGGLVQPGGSLRLSCAASGFTFSSYDMSWVRQAPGKGLEWVSAISPYSGRIYYADSVKGRFTISRDNSKNTLYLQMNSLRAEDTAVYYCARMALDFDYWGQGTLVTVSSASTKGPSVFPLAPSSKSTSGGTAALGCLVKDYFPEPVTVSWNSGALTSGVHTFPAVLQSSGLYSLSSVVTVPSSSLGTQTYICNVNHKPSNTKVDKKV[letters of human IgG1 Fc with changes omitted] light: QSVLTQPPSASGTPGQRVTISCTGSSSNIGSNYVTWYQQLPGTAPKLLIYDNSNRPSGVPDRFSGSKSGTSASLAISGLQSEDEADYYCSSFSDELGAYVFGGGTKLTVLGQPKAAPSVTLFPPSSEELQANKATLVCLISDFYPGAVTVAWKADSSPVKAGVETTTPSKQSNNKYAASSYLSLTPEQWKSHRSYSCQVTHEGSTVEKTVAPTECS	inhibited LN421-dependent cell migration	inhibited the laminin-dependent migration of cancer cells		
N3-8-2: N3-8 derivative; VH SEQ ID NO: 45, VL 53; HC 103, LC 113 (antibody, IgG heavy chain 6; IgG light chain 4, N3-8 derivative; HC 103, LC 113) heavy: EVQLLESGGGLVQPGGSLRLSCAASGFTFSSYDMSWVRQAPGKGLEWVSAISPYSGRIYYADSVKGRFTISRDNSKNTLYLQMNSLRAEDTAVYYCARMALDFDYWGQGTLVTVSS[letters of human IgG1 constant region omitted] light: QSVLTQPPSASGTPGQRVTISCTGSSSNIGSNYVTWYQQLPGTAPKLLIYSNNQRPSGVPDRFSGSKSGTSASLAISGLQSEDEADYYCSSFSDELGAYVFGGGTKLTVLGQPKAAPSVTLFPPSSEELQANKATLVCLISDFYPGAVTVAWKADSSPVKAGVETTTPSKQSNNKYAASSYLSLTPEQWKSHRSYSCQVTHEGSTVEKTVAPTECS			72.41	
N3-8-5: N3-8 derivative; VH SEQ ID NO: 47, VL 53; HC 105, LC 113 (antibody, IgG heavy chain 7; IgG light chain 4, N3-8 derivative; HC 105, LC 113) heavy: EVQLLESGGGLVQPGGSLRLSCAASGFTFSSYDMSWVRQAPGKGLEWVSAISPYSGRIYYADSVKGRFTISRDNSKNTLYLQMNSLRAEDTAVYYCARLALDFDYWGQGTLVTVSS[letters of human IgG1 constant region omitted] light: QSVLTQPPSASGTPGQRVTISCTGSSSNIGSNYVTWYQQLPGTAPKLLIYSNNQRPSGVPDRFSGSKSGTSASLAISGLQSEDEADYYCSSFSDELGAYVFGGGTKLTVLGQPKAAPSVTLFPPSSEELQANKATLVCLISDFYPGAVTVAWKADSSPVKAGVETTTPSKQSNNKYAASSYLSLTPEQWKSHRSYSCQVTHEGSTVEKTVAPTECS			72.9	
N3-8-6: N3-8 derivative; VH SEQ ID NO: 47, VL 55; HC 105, LC 115 (antibody, IgG heavy chain 7; IgG light chain 5, N3-8 derivative; HC 105, LC 115) heavy: EVQLLESGGGLVQPGGSLRLSCAASGFTFSSYDMSWVRQAPGKGLEWVSAISPYSGRIYYADSVKGRFTISRDNSKNTLYLQMNSLRAEDTAVYYCARLALDFDYWGQGTLVTVSS[letters of human IgG1 constant region omitted] light: QSVLTQPPSASGTPGQRVTISCTGSSSNIGSNYVTWYQQLPGTAPKLLIYRNNQRPSGVPDRFSGSKSGTSASLAISGLQSEDEADYYCSSFSDELGAYVFGGGTKLTVLGQPKAAPSVTLFPPSSEELQANKATLVCLISDFYPGAVTVAWKADSSPVKAGVETTTPSKQSNNKYAASSYLSLTPEQWKSHRSYSCQVTHEGSTVEKTVAPTECS			71.0	76.97
N3-8-4: N3-8 derivative; VH SEQ ID NO: 47, VL 51; HC 105, LC 111 (antibody, IgG heavy chain 7; IgG light chain 3, N3-8 derivative; HC 105, LC 111) heavy: EVQLLESGGGLVQPGGSLRLSCAASGFTFSSYDMSWVRQAPGKGLEWVSAISPYSGRIYYADSVKGRFTISRDNSKNTLYLQMNSLRAEDTAVYYCARLALDFDYWGQGTLVTVSS[letters of human IgG1 constant region omitted] light: QSVLTQPPSASGTPGQRVTISCTGSSSNIGSNYVTWYQQLPGTAPKLLIYDNSNRPSGVPDRFSGSKSGTSASLAISGLQSEDEADYYCSSFSDELGAYVFGGGTKLTVLGQPKAAPSVTLFPPSSEELQANKATLVCLISDFYPGAVTVAWKADSSPVKAGVETTTPSKQSNNKYAASSYLSLTPEQWKSHRSYSCQVTHEGSTVEKTVAPTECS			70.31	
N3-8-3: N3-8 derivative; VH SEQ ID NO: 45, VL 55; HC 103, LC 115 (antibody, IgG heavy chain 6; IgG light chain 5, N3-8 derivative; HC 103, LC 115) heavy: EVQLLESGGGLVQPGGSLRLSCAASGFTFSSYDMSWVRQAPGKGLEWVSAISPYSGRIYYADSVKGRFTISRDNSKNTLYLQMNSLRAEDTAVYYCARMALDFDYWGQGTLVTVSS[letters of human IgG1 constant region omitted] light: QSVLTQPPSASGTPGQRVTISCTGSSSNIGSNYVTWYQQLPGTAPKLLIYRNNQRPSGVPDRFSGSKSGTSASLAISGLQSEDEADYYCSSFSDELGAYVFGGGTKLTVLGQPKAAPSVTLFPPSSEELQANKATLVCLISDFYPGAVTVAWKADSSPVKAGVETTTPSKQSNNKYAASSYLSLTPEQWKSHRSYSCQVTHEGSTVEKTVAPTECS			71.02	76.31
